Target: T1, human ULBP1 ECD (human, UniProt Q9BZM6 26-216, limits assumed)
T1 construct: extracellular domain; also called recombinant extracellular domain of ULBP1
T1 sequence (looked up): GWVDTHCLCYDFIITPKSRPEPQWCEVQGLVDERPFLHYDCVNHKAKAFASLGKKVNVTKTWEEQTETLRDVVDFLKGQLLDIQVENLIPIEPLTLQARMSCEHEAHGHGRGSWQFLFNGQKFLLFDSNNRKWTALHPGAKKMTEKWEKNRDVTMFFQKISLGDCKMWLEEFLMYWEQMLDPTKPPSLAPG
Assay: direct ELISA on coated recombinant ECD (30 ng/well), HRP-conjugated secondary antibody, luminescence
Experimental: Briefly, recombinant extracellular domain of PDGFRb, FAPα, ULBP1, uPAR, IGF1R, SIRPA, PD-L1, ANTXR1, CD248, or GPC3 (30 ng/well) was coated on white optiplate™-384 well HB plate. After overnight coating, standard direct ELISA assay was performed. Luminescence signal was detected after using secondary antibody with HRP conjugated. Binding activity of each antibody was determined based on dose dependent binding curve.

B1: NKG2D-hIgG1 Fc S239D/1332E (Fc fusion)
chain: FLNSLFNQEVQIPLTESYCGPCPKNWICYKNNCYQFFDESKNWYESQASCMSQNASLLKVYSKEDQDLLKLVKSYHWMGLVHIPTNGSWQWEDGSILSPNLLTIIEMQKGDCALYASSFKGYIENCSTPNTYICMQRTVGGSGGGSGFLNSLFNQEVQIPLTESYCGPCPKNWICYKNNCYQFFDESKNWYESQASCMSQNASLLKVYSKEDQDLLKLVKSYHWMGLVHIPTNGSWQWEDGSILSPNLLTIIEMQKGDCALYASSFKGYIENCSTPNTYICMQRTVGGGGSGGGGSGGGGSGGGGS[human IgG1 Fc with changes not given here]
notes: also called NKG2D-hIgG1 Fc S239D/I332E; NKG2D-Fc fusion protein
  binding result: binds

Reference: US20240254239A1 (LAEKNA THERAPEUTICS SHANGHAI, published 2024)
